The source of these data is paper PMC9723119.

By UniProt entry, the sequences of proteins in these tests, tags left out.
UniProt Q9Y572: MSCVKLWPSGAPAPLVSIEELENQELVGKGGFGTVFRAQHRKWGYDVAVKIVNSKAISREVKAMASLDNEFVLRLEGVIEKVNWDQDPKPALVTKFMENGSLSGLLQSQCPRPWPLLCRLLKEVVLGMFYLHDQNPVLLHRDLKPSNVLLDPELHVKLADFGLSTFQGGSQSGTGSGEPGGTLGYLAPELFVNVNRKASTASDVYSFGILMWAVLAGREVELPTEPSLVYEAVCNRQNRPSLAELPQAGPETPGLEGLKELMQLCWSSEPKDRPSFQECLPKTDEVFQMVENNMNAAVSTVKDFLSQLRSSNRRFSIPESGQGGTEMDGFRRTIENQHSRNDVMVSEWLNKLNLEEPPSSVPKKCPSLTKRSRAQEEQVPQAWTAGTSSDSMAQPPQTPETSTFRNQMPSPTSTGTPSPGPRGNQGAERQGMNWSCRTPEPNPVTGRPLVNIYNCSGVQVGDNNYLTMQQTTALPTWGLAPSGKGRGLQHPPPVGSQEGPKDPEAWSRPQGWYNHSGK
UniProt Q13546: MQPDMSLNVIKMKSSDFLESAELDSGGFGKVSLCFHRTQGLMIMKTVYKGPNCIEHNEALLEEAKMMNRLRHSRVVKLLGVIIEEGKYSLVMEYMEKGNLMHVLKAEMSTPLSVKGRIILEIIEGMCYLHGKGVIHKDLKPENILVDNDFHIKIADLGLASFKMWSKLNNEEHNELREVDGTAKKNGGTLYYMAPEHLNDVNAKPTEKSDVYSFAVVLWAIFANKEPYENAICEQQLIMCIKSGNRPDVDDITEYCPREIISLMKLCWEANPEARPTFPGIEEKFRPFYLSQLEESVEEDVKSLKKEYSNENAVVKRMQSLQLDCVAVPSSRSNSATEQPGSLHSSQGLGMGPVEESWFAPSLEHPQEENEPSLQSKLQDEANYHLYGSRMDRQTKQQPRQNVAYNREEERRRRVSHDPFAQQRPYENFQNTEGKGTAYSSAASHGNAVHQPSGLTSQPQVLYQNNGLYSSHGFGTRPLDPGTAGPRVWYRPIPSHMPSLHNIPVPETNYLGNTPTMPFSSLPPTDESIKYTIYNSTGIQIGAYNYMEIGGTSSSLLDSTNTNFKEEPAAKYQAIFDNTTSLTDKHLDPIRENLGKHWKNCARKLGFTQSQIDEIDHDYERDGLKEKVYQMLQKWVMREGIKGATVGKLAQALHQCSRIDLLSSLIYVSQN
UniProt Q14790: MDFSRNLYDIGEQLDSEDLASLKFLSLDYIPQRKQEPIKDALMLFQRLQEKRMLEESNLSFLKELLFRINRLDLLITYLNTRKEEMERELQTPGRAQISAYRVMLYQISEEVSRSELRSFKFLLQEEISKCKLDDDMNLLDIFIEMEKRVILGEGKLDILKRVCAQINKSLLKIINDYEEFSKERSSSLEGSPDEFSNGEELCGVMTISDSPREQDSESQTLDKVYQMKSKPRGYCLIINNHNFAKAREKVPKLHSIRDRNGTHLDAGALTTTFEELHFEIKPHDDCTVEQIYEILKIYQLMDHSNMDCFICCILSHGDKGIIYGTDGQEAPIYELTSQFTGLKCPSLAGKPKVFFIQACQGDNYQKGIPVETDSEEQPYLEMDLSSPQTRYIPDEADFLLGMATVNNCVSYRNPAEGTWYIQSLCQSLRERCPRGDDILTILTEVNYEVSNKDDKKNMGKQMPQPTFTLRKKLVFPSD
UniProt P29466: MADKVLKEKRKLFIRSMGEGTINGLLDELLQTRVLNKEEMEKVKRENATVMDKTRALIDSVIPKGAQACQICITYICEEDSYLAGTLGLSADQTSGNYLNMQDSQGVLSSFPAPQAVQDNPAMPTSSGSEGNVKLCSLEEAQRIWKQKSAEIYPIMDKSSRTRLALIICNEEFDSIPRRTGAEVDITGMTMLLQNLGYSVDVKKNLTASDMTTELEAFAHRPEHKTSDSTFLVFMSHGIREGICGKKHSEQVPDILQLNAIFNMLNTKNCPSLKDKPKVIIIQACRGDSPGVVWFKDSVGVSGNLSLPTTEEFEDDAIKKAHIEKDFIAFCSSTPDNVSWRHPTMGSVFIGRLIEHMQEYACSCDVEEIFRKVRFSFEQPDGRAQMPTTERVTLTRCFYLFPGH

The target in assay [1] is RIP kinase 3 (RIPK3) (human (endogenous in AC-16)) (UniProt Q9Y572). The assay is described as follows: condition: only control cardiomyocytes without DOX challenge; co-IP; RIPK3 immune complexes from control AC-16 cardiomyocytes without DOX challenge; blots of the endogenous partners.
The target is the same in assay [2]. The assay is described as follows: co-IP; RIPK3 immune complexes from DOX-treated AC-16 cardiomyocytes, with scrambled or AIM2 siRNA; blots of the endogenous partners; IgG control.

Results are given in words; binding and its absence hold for the method and conditions named. In cells and extracts the contact can be indirect. Some binding calls cover weakened binding; strength is not graded here.

With “RIP kinase 1 (RIPK1) (from UniProt Q13546 1-671)”, the binding result in assay [1] was “no binding”; in assay [2] it was “binds”.

Turning to “Caspase8 (from UniProt Q14790 1-479) (enzyme)”, the binding entry in assay [1] is “no binding”; in assay [2] it was “binds”.

As to “Caspase1 (from UniProt P29466 1-404) (enzyme)”, the binding result is “no binding” in assay [1] and “binds” in assay [2].

B1: Z-DNA-binding protein 1 (ZBP1) (protein, UniProt Q9H171 1-429)
chain: MAQAPADPGREGHLEQRILQVLTEAGSPVKLAQLVKECQAPKRELNQVLYRMKKELKVSLTSPATWCLGGTDPEGEGPAELALSSPAERPQQHAATIPETPGPQFSQQREEDIYRFLKDNGPQRALVIAQALGMRTAKDVNRDLYRMKSRHLLDMDEQSKAWTIYRPEDSGRRAKSASIIYQHNPINMICQNGPNSWISIANSEAIQIGHGNIITRQTVSREDGSAGPRHLPSMAPGDSSTWGTLVDPWGPQDIHMEQSILRRVQLGHSNEMRLHGVPSEGPAHIPPGSPPVSATAAGPEASFEARIPSPGTHPEGEAAQRIHMKSCFLEDATIGNSNKMSISPGVAGPGGVAGSGEGEPGEDAGRRPADTQSRSHFPRDIGQPITPSHSKLTPKLETMTLGNRSHKAAEGSHYVDEASHEGSWWGGGI
Turning to B1, the binding result in assay [1] is “no binding”; in assay [2], “binds”.

B2: AIM2 (protein, UniProt O14862 1-343)
chain: MESKYKEILLLTGLDNITDEELDRFKFFLSDEFNIATGKLHTANRIQVATLMIQNAGAVSAVMKTIRIFQKLNYMLLAKRLQEEKEKVDKQYKSVTKPKPLSQAEMSPAASAAIRNDVAKQRAAPKVSPHVKPEQKQMVAQQESIREGFQKRCLPVMVLKAKKPFTFETQEGKQEMFHATVATEKEFFFVKVFNTLLKDKFIPKRIIIIARYYRHSGFLEVNSASRVLDAESDQKVNVPLNIIRKAGETPKINTLQTQPLGTIVNGLFVVQKVTEKKKNILFDLSDNTGKMEVLGVRNEDTMKCKEGDKVRLTFFTLSKNGEKLQLTSGVHSTIKVIKAKKKT
Turning to B2, the results for the binding entry in assay [1] and in assay [2] were “no binding” and “binds”, respectively.

B3: Pyrin (protein, UniProt O15553 1-781)
chain: MAKTPSDHLLSTLEELVPYDFEKFKFKLQNTSVQKEHSRIPRSQIQRARPVKMATLLVTYYGEEYAVQLTLQVLRAINQRLLAEELHRAAIQEYSTQENGTDDSAASSSLGENKPRSLKTPDHPEGNEGNGPRPYGGGAASLRCSQPEAGRGLSRKPLSKRREKASEGLDAQGKPRTRSPALPGGRSPGPCRALEGGQAEVRLRRNASSAGRLQGLAGGAPGQKECRPFEVYLPSGKMRPRSLEVTISTGEKAPANPEILLTLEEKTAANLDSATEPRARPTPDGGASADLKEGPGNPEHSVTGRPPDTAASPRCHAQEGDPVDGTCVRDSCSFPEAVSGHPQASGSRSPGCPRCQDSHERKSPGSLSPQPLPQCKRHLKQVQLLFCEDHDEPICLICSLSQEHQGHRVRPIEEVALEHKKKIQKQLEHLKKLRKSGEEQRSYGEEKAVSFLKQTEALKQRVQRKLEQVYYFLEQQEHFFVASLEDVGQMVGQIRKAYDTRVSQDIALLDALIGELEAKECQSEWELLQDIGDILHRAKTVPVPEKWTTPQEIKQKIQLLHQKSEFVEKSTKYFSETLRSEMEMFNVPELIGAQAHAVNVILDAETAYPNLIFSDDLKSVRLGNKWERLPDGPQRFDSCIIVLGSPSFLSGRRYWEVEVGDKTAWILGACKTSISRKGNMTLSPENGYWVVIMMKENEYQASSVPPTRLLIKEPPKRVGIFVDYRVGSISFYNVTARSHIYTFASCSFSGPLQPIFSPGTRDGGKNTAPLTICPVGGQGPD
B3: the binding result is “no binding” in assay [1] and “binds” in assay [2].
